The source of these data is the supplement of paper PMC12632987.

In all, about 2,300 sequences were measured (“median log2 fold change of GCK-ALFA target abundance (FLAG IP / Myc IP barcode read proportion)”: median about 0.095, lowest 2% from about -0.47 on). The list shows a part of the results.

First the molecules themselves.
B1: LC3A_3_1422 (protein)
chain: MEERLEEALEALREAGWSEETLEAFREFVELLLERGAEEEAEEAIELVLENKDLSSERLLEVLEEAIALLKTPGVSPEEAIEKLKELLTIAKNEQEIIEL
B2: LC3A_147_418 (protein)
chain: GVLEFSIDILGKLTDEEIEELVKALEATARAHGAEVKSEVKVEELPGGERYVEITLTLTGVAKEDAQALFNALVDTVDEFIEKNKDKIKGAIISHEYIET
B3: LC3A_free_0_2110 (protein)
chain: MKIRGVVTVLTLEKISEEKAERLEEKAREIAERFAKRTGLEVELEVERKDGYLTITVTVIAEGKSREEVLDLLFEIERELLEAFEEEGVEAISSIEIEEL
B4: LC3A_3_1609 (protein)
chain: SEELVEENLKRLREAGLSEKVLEAARKVLEALAKKGFEEAAKTLTEELLKAKDLPDERLLATLEEILKVVETEDLNEEELIKIIKEEFRVARLEAEIIEL
B5: LC3A_3_1446 (protein)
chain: AEELREEALELLKERGASEETIEAAKELFDELIKKGYLESLKLVLEWLKKVKDASDEFLLEAFKSLLELVKTSDLSPEEMKKKIEEELNSFESELEIEEL
B6: LC3A_free_39_2197 (protein)
chain: SEEEREEAIEELLKLAREEGEEAEELARELIKLLGEKLEYAKELLELAKEAKEAGVDLKEVLKEALELAKKLKAEGKSEEEIAEAVLELIRDYINLIPID
B7: LC3A_28_969 (protein)
chain: MDIDEELEEALKKAKEAKEKGEPTVITIKVPGTTNEEDTEKIIEALEEIAEILKDIKGAAIIIDIDGDVPQENITKLLNKAEEIEKKYPNITVIFELDEK
B8: LC3A_28_713 (protein)
chain: MELEKSIEEALEEARRAAERGEEAVITIKVEGEATEEETEKVMEAIEEIAEITKDLKSTTIIVDVDGKVPQEHIDKIADRAEEVEERYPNVTVIIALDEE
B9: LC3A_28_774 (protein)
chain: MDVKENVERAIKEAKEAKERGEETVIEIKIPDGATAEDIDIVIKGLEEIAEITKDMKRVSVVVDIDGGVKQEHIDKLLDKAEEIEEKYPNVTVIFALDEE
B10: LC3A_147_422 (protein)
chain: YKATVTVDLIVKGDAEEALAAIDELTAELLAEGADKVEIERERDPETGEIWVTVTITKTTATLEEAQAFADAVIDRFEALEAKYKDKLKIGAISVEIEEA
B11: LC3A_28_1265 (protein)
chain: AAMEARIAAFLAAAEAARAAGEPAVLTLSIGGDATAEDVDRAIAALRRAAELLRDIPGTAIVIDVDADVAQENVDRLMAAAEEVEAATGRVTVIIALEDA
B12: LC3A_28_703 (protein)
chain: SMLEKNIEKAIEEAKKAAEKGEEAVITIKVPSTATQEDIEKVIEALEEIAEITKDLKSTSIIVDVEGGVKQEYIDKLIDKGEEIEKKYPNVTVIIALDEE
B13: LC3A_61_2041 (protein)
chain: MEEEFEELLEELKELGLSEETLELLEEIYEKDPEGAIALAKEIVEALKAGLKPEVVEELVEETLERVKAAETPEEVRAIIAEAIEEVRDLINLIPLEDLR
B14: LC3A_28_764 (protein)
chain: MSIADEVAAAIAEAREAAARGEPAVITIKVPAGATQEDIDLVIAGMREIAEITKDMESTAIIVDVDSGVPQENIDKLADAGEEIEKKYPNVTVIIALDED
B15: LC3A_28_984 (protein)
chain: MDIAEQIDALIAEARAAAAAGEPRVFTLKIPSTATEEDIEKAIAGLREIGAILADVPGSAIVIDVESGVKEEHIDKLADAAEEVEAANPNVTVIIALDEE
B16: LC3A_102_157 (protein)
chain: KIEELLEEGERRIRELAEELAETLSPEEAEELRELVERALELLRRYAEELKIGSQHDFETVEGVAAELELEELIRRLEEMGAEEIARALRETLEELKKLA
B17: LC3A_147_472 (protein)
chain: VKAVVDIDILTKDAEEEVKEKIKEIVEELKKKGYKVELEIETEKLPDGTTYIKVKITIEAETLEKAKEAANEVIDKLEEMEEELKDKILGSIISVDIEEE
B18: LC3A_free_8_2483 (protein)
chain: NSEKLAQEVVKLLSELEERLVALAREEGASRLDILELELLVGSTIAEVISLRDKSIEEIRKETEEGLKEIIAEAAKVGPKVAALAEEGAKEILETIDKAE
B19: LC3A_3_1672 (protein)
chain: MEEAIGRLLEAERARGASEEQLAELREALEELLKVSSEKVLERLVELLLEAEDVPVEQKIDAVRDIVYEIKKNNLSEEEQIELVESEVRAIRHGTEIEEL
B20: LC3A_141_355 (protein)
chain: KTLTLKYTIKAKTPEEAIKKLEEVKKEIKKKMEEEGFKSVDITATITTKNKKTGETTTETVKETVTKENIDLVFDSLIIEVASAALKGDVTVDITATLIE
B21: LC3A_28_1123 (protein)
chain: SARRAAWRAALAEAKALAAKGEDVVATFTATGDDTEEDVRYLVEVIREAAKYLAEKGQSSILLDIDGSLPEHLRNYLIDKADEIEKEYPSVNIVIALEED
B22: LC3A_3_1521 (protein)
chain: MEEKKEEIIELLREAGASEETIELAKKTLELLEKRGYEKAIETLLEELKKLKDLPVETIEDFVRDVLELVETKDLSEEELSEEIRRIARTAKNDAEIEEL
B23: LC3A_102_141 (protein)
chain: SVEELKEEVLERVRKRVTELVAADPSVTPEQAKEIVETALELLRARLENLISERQHGFTDIVAEDKAIEAEEELKKYGEELAKKVLEIVEEGLEEFEERL
B24: LC3A_28_1292 (protein)
chain: SAIEEELKRALEEAERARKEGKQQVITVRVPGNATQEEIKLVIEGLEKIAEVLKDVPNQTIVVDVDAGVPQEYIDLLADKAEEIEKKYPNVTVIIALDED
B25: LC3A_127_193 (protein)
chain: KLKEVLEKLIELARKAAELLEDPNADPEEIKKLLEEALKAAKEAVELDPSTQPILDDVEQAKKLFEQYLAASPEEQEALREQLILLLDGIEIEAESKLLK
B26: LC3A_28_946 (protein)
chain: MTVEEQAKAALEEAKKAAEKKEPTVITLTVKGTDTQEEVDLVIDTMKEIAELLKDIKGSAIIVNVEAGVPQEVVDKLADTGEEIEKKYPNINVIIALDEE
B27: LC3A_28_1039 (protein)
chain: SALEKDAEAALKEAEEQLAKGDEAVVTLTVKDTPTEEAVAVVTDFLKRLIELSKKYGNKKIHVVIDYDGDQETLDAIIAAAEEAEAANPNLTVIVAYNDK
B28: LC3A_45_1946 (protein)
chain: MAEATVLVLVPEELFDETLAVLREATEEISKEKGLEAEIDEEAVEEAREEAKREGEALLEVTVYSDDEQKALDAAVEIADRIEEKMGPKVAVAIAIKEIP
B29: LC3A_132_278 (protein)
chain: EEKEKEKAIKEIKELAEKAKKNIKDPEKVKKLLEELRKLLEEIEKTKSPEVAAAAAEEAERELLELSRELEKAGLEDLALEADSLAIEAASLAIRAKKKI

This experiment concerns the target MAP1LC3A, Q9H492. Kind of experiment: median log2 fold change of GCK-ALFA target abundance (FLAG IP / Myc IP barcode read proportion) (log2 ratio); each designed protein is fused to an ALFA-tag nanobody in HEK293 cells to bring the named protein to FLAG-tagged glucokinase (GCK); Myc marks an untargeted standard; higher = target protein stabilised (more abundant). The conditions noted are these: target protein: 3xFLAG-MCP-GCK-ALFA reporter; HEK293 landing pad (RPLP). Put shortly:
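HEK293 landing-pad cells received a recombined binder library fused to the ALFA nanobody and were induced with 2 μg mL^−1 doxycycline, then transfected with a plasmid encoding a FLAG-tagged target and a Myc-tagged standard. Lysates were collected after 48 h for anti-FLAG and anti-Myc immunoprecipitation, and the circular RNA barcodes were reverse transcribed, amplified and sequenced. Target abundance for each binder is the median log2 ratio of FLAG to Myc barcode read proportions. Barcodes had to reach a proportion of at least 10^−7 in both replicates, each binder needed at least 3 barcodes per replicate, a pseudocount of 10^−6 was applied, and the two replicates were pooled.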
With B1, the “median log2 fold change” value is 0.338.

Consider B2, for which the “median log2 fold change” value was -0.0605.

On to B3, for which the “median log2 fold change” value stood at 0.395.

B4: the “median log2 fold change” value worked out at 0.246.

Take B5: the “median log2 fold change” value was 0.262.

For B6, the “median log2 fold change” value stood at 0.226.

On to B7, for which the “median log2 fold change” value stood at 0.372.

For B8, the “median log2 fold change” value amounted to 0.194.

B9: the “median log2 fold change” value was -0.308.

For B10, the “median log2 fold change” value came out at 0.0883.

In the case of B11, the “median log2 fold change” value was -0.0511.

In the case of B12, the “median log2 fold change” value was found to be 0.264.

Regarding B13, the “median log2 fold change” value is 0.0626.

As for B14, the “median log2 fold change” value was -0.103.

For the molecule B15, the “median log2 fold change” value stood at 0.0378.

Turning to B16, the “median log2 fold change” value was 0.214.

B17: the “median log2 fold change” value was -0.0163.

Take B18: the “median log2 fold change” value was -0.0519.

With B19, the “median log2 fold change” value turned out to be 0.274.

For B20, the “median log2 fold change” value amounted to 0.0846.

With B21, the “median log2 fold change” value is -0.325.

On to B22, for which the “median log2 fold change” value was found to be 0.407.

As to B23, the “median log2 fold change” value turned out to be 0.0153.

On to B24, for which the “median log2 fold change” value was determined as 0.141.

As to B25, the “median log2 fold change” value was 0.219.

With B26, the “median log2 fold change” value was 0.248.

Take B27: the “median log2 fold change” value was -0.13.

In the case of B28, the “median log2 fold change” value was found to be 0.308.

With B29, the “median log2 fold change” value amounted to 0.34.
